Measurements taken from PubChem BioAssay (Tox21).
“And” between values parts separate entries of the source, which are not always exact repeats. Identical values can stand only once. Inconclusive means that the source gave no clear call. Such entries were picked first, then a sample of the others. Potencies of inconclusive entries are left out as doubtful fits. The source made the active and inactive calls. Calls follow the shape of the dose curve; as a rule, active = well fitted cell-killing curve with a large enough effect in the repeat runs; inconclusive = weak or mixed curves, or effect the other way; inactive = flat fitted curve, though single readings scatter.

assay: Caspase-3/7 induction in HepG2 cells by small molecules, qHTS cell viability counter screen (AID 1346981); details: CellTiter-Fluor fluorescence, 17 h; series mostly up to 92.4 µM; also: nearly all actives have a fitted effect of over 30% in size
Summary of the method: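 Multiplexed with the caspase-3/7 assay: HepG2 cells, 16 hr compound treatment, CellTiter-Fluor viability detection by fluorescence.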
Potency is read from the fitted curve at half-maximal effect; tags tell the direction and shape of the fitted curve.

Row | Structure (SMILES) | Potency
1 | [Cd+2].[Cl-].[Cl-] | active: 54.9 µM and active: 30.6 µM
2 | Nc1ccc(Cl)cc1N | inconclusive [cytotoxic, partial curve]
3 | CCOC(=O)c1ccccc1C(=O)OCC | inconclusive [cytotoxic, single point]
4 | Cc1cc(Cl)ccc1OC(C)C(=O)O (stereo unspecified) | inconclusive [cytotoxic, single point]
5 | O=S1(=O)OC(c2cc(Br)c(O)c(Br)c2)(c2cc(Br)c(O)c(Br)c2)c2ccccc21 | active: 25 µM
6 | CN(C)c1ccc(N=O)cc1 | active: 54.6 µM and active: 61.1 µM
7 | O=c1c(C2CC(c3ccc(-c4ccc(Br)cc4)cc3)Cc3ccccc32)c(O)sc2ccccc12 (stereo unspecified) | inconclusive [cytotoxic, single point]
8 | COc1cc(OC)c(OC)cc1C=O | inconclusive [cytotoxic, single point]
9 | C[CH2][Hg][S]c1ccccc1C(=O)O | active: 12.2 µM and active: 13.3 µM
10 | N#Cc1c[nH]cc1-c1cccc2c1OC(F)(F)O2 | inconclusive [cytotoxic, single point]
11 | O=C(Nc1ccc2[nH]ccc2c1)c1cc2cc(F)ccc2n1Cc1cccc(F)c1 | active: 61.1 µM
12 | O=P(Oc1ccccc1)(Oc1ccccc1)Oc1ccccc1 | inactive
13 | c1cc(OCC2CO2)ccc1Cc1ccc(OCC2CO2)cc1 (stereo unspecified) | inconclusive [cytotoxic, partial curve]
14 | O=[N+]([O-])c1ccc(O)c([N+](=O)[O-])c1 | active: 54.7 µM and active: 61.1 µM
15 | O=c1[nH]c2ccccc2n1C1CCN(CCCC(c2ccc(F)cc2)c2ccc(F)cc2)CC1 | inconclusive [cytotoxic, single point]
16 | CCC[CH2][Sn]([CH2]CCC)([CH2]CCC)[O][Sn]([CH2]CCC)([CH2]CCC)[CH2]CCC | active: 1.34 µM

Row | Structure (SMILES) | Potency
17 | COC(=O)C(c1ccccc1)C1CCCCN1 (stereo unspecified) | inactive
18 | [Cl-].[Cl-].[Hg+2] | active: 27.2 µM and active: 54.5 µM
19 | C=Cc1cccc(CCl)c1 | inconclusive [rising, partial curve, poor fit]
20 | C[C@@H]1CC[C@@]2(OC1)O[C@H]1[C@@H](O)[C@H]3[C@@H]4CC[C@H]5C[C@@H](O[C@@H]6O[C@H](CO)[C@H](O[C@@H]7O[C@H](CO)[C@@H](O)[C@H](O[C@@H]8OC[C@@H](O)[C@H](O)[C@H]8O)[C@H]7O[C@@H]7O[C@H](CO)[C@@H](O)[C@H](O[C@@H]8O[C@H](CO)[C@@H](O)[C@H](O)[C@H]8O)[C@H]7O)[C@H](O)[C@H]6O)[C@H](O)C[C@]5(C)[C@H]4CC[C@]3(C)[C@H]1[C@@H]2C | active: 36.5 µM
21 | CN(C)[C@@H]1C(=O)C(C(N)=O)=C(O)[C@@]2(O)C(=O)C3=C(O)c4c(O)ccc(Cl)c4[C@@](C)(O)[C@H]3C[C@@H]12 | inconclusive [cytotoxic, single point]
22 | CCCCCCCCc1ccc(O)cc1 | inconclusive [cytotoxic]
23 | CCC[CH2][Sn]([CH2]CCC)([CH2]CCC)[O]C(=O)c1ccccc1 | active: 4.86 µM
24 | CO/N=C(/C1=NOCCO1)c1ccccc1Oc1ncnc(Oc2ccccc2Cl)c1F | active: 30.6 µM
25 | CC1(C)[C@H](C(=O)O[C@H](C#N)c2cccc(Oc3ccccc3)c2)[C@@H]1C=C(Br)Br | inconclusive [rising, partial curve, poor fit]
26 | N#Cc1c2ccccc2cc2ccccc12 | inconclusive [rising, full curve]
27 | O=[N+]([O-])c1ccc(Nc2ccccc2)cc1 | active: 48.9 µM and active: 24.3 µM
28 | [CH3][Hg][Cl] | inconclusive [cytotoxic, single point]
29 | CC1(C)C(/C=C(\Cl)C(F)(F)F)C1C(=O)OC(C#N)c1cccc(Oc2ccccc2)c1 (stereo unspecified) | inactive
30 | COP(=S)(OC)Oc1ccc([N+](=O)[O-])cc1Cl | active: 61.1 µM
31 | CC(C)(c1ccccc1)c1ccc(O)c(C(C)(C)c2ccccc2)c1 | inconclusive [cytotoxic, single point]
